From paper PMC12136788
The list shows a part of the results.

T1: UNK ZnF1-6 (called full-length) (human, UniProt Q9C0B0 30-357)
T1 sequence: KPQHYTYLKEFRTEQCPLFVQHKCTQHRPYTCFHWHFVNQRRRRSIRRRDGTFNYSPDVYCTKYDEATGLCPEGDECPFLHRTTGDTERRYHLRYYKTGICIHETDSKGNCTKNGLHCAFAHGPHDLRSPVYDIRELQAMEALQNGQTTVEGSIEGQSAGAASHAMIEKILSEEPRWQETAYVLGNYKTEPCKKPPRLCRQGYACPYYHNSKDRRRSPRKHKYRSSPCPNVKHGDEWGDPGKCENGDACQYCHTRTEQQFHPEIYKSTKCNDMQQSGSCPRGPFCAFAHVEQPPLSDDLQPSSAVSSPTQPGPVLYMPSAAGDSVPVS

B1: chr8:11323570:11323671:+|3pUTR|ENSG00000104643|unk|FALSE|unique (ssRNA)
RNA: GGGAGUUCUACAGUCCGACGAUCGAGCAUACAUAUACAAUGUGUUUCAAAUGCUGCUUGUAAAAUUAAACCAUCAUCUAGAAUAGAGUUAAUUUAUUAUAAUCAAGCUACAAAUAGGUUUUCUUAAACCAGAGAUGCACUGCCCAACAGAGGAUUGAGCAUCA
B2: chr21:43982464:43982545:+|3pUTR|ENSG00000160216|msi1_unk|total|mutant (ssRNA)
RNA: GGGAGUUCUACAGUCCGACGAUCCCCUGACGGUGGUAUCCAGUUAACUCAAAACCAACACACAGAGUGCAGGAAAAGACAAUCCGAAACUAUUUUUCUUAUUAACUGGUGACUAAUAUUAACAAAACUUGAGCCAAGAGUAAACAACAGAGGAUUGAGCAUCA
B3: ENSG00000070961:be:win_2651|CDS|ENSG00000070961|bound_else_gene|NA|bound_elsewhere_windowed (ssRNA)
RNA: GGGAGUUCUACAGUCCGACGAUCCUGUGCAGAUGCUGUGGGUAAACCUCAUAAUGGAUACACUCGCUUCCCUGGCUCUGGCAACGGAACCACCCACUGAGUCUCUCUUGCUUCGGAAACCUUAUGGUAGAAAUAAGCCUCUCACAACAGAGGAUUGAGCAUCA
B4: chr4:75876286:75876673:-|CDS|ENSG00000156194|control|control|control (ssRNA)
RNA: GGGAGUUCUACAGUCCGACGAUCCGGUUCCCUGGACGGGCGGGAGCUCUCCCGGCAGGUGCGGAGCUCCGUGGAACUGGAGCUAGAGCGGUGCCGGCAGCAAGCAGGCCUCCUGGUGACCGGAGAGAAAGAGGAGCCCUCCCGCAACAGAGGAUUGAGCAUCA
B5: chr14:80199969:80200157:-|3pUTR|ENSG00000211448|msi1|FALSE|unique (ssRNA)
RNA: GGGAGUUCUACAGUCCGACGAUCUUUAUGAUUUCUUGUGAUGUAUUCUUUUAUGAAAUUAACAAGAACUCAUUAUUUUGAGGUAGAGGAAAAUCAAUGCUUUAUCUGAUAUGCUGAGAAAUUAUUAGAUUGCCAAUACUCAUGCAACAGAGGAUUGAGCAUCA
B6: chr18:5392435:5392536:-|3pUTR|ENSG00000082397|msi1|total|mutant (ssRNA)
RNA: GGGAGUUCUACAGUCCGACGAUCAAGCCUUAAACUGUACAGAAUUUCCACUGUAAUUAAAACUAUUCCGUGUCCGUUAUAAACCGCCUUCAAAAAGAGAGAUUCUCCAUUACACGAUCACCUGCAUCACAGCCCAUGGUGAAUCAACAGAGGAUUGAGCAUCA
B7: chr9:16436428:16436529:-|CDS|ENSG00000173068|msi1|FALSE|unique (ssRNA)
RNA: GGGAGUUCUACAGUCCGACGAUCCUCCCUAGCCAGCUAGUAUUUUCUGGGCUAAAGACUGUACAACCAGUUCCUCCAUUUUAUAGAAGUUUACUCACUCCAGGGGAAAUGGUGAGUCCUCCAACCUCCCUCCCAACCAGUCCCCAACAGAGGAUUGAGCAUCA
B8: chr15:43617570:43618356:-|three_prime_utr|ENSG00000284772|control|control|control (ssRNA)
RNA: GGGAGUUCUACAGUCCGACGAUCUACAUUCCUGGCCAACAUUUCUUCUUCCUUUGAGCCUGGGAGAAUGGGGGAAGGACCAGUAGGAGAGCCCCCACCUCUCCAGCCGCCUGCUCUGCGGCUCCAUGAUUUUCUAGUGACACUCAACAGAGGAUUGAGCAUCA
B9: chr12:53210768:53210868:-|3pUTR|ENSG00000172819|msi1_unk|FALSE|overlapping (ssRNA)
RNA: GGGAGUUCUACAGUCCGACGAUCAGGGGGGAUGCUGCUUAGCUGAUCCCGCCCUGACCCAGAGGAAGCCUCUAUUUAUUUAUUAGCUUUUGUUUACACCGUGGAAUUGACCCCUUCCUCCAGGGGUCUUGGGUGGGGGAGCCCCAACAGAGGAUUGAGCAUCA
B10: ENSG00000124766:be:win_1351|CDS_3pUTR|ENSG00000124766|bound_else_gene|NA|bound_elsewhere_windowed (ssRNA)
RNA: GGGAGUUCUACAGUCCGACGAUCACGCCCGAGGUGAGCGAGAUGAUCUCGGGAGACUGGCUCGAGUCCAGCAUCUCCAACCUGGUUUUCACCUACUGAAGGGCGCGCAGGCAGGGAGAAGGGCCGGGGGGGGUAGGAGAGGAGCAACAGAGGAUUGAGCAUCA
B11: chr1:183143318:183143419:+|3pUTR|ENSG00000135862|msi1|FALSE|unique (ssRNA)
RNA: GGGAGUUCUACAGUCCGACGAUCACAUCCUGUGCCAAAGGUAUUGGUCAUUUAGAAUGUCGGUAGCCAUCCAUCAGUGCUUUUAGUUAUUAUGAGUGUAGGACACUGAGCCAUCCGUGGGUCAGGAUGCAAUUAUUUAUAAAACAACAGAGGAUUGAGCAUCA
B12: ENSG00000136451:be:win_3801|3pUTR|ENSG00000136451|bound_else_gene|NA|bound_elsewhere_windowed (ssRNA)
RNA: GGGAGUUCUACAGUCCGACGAUCACCCCUAAGCUAGAAUGUGGUUGUCAGAACCCUGAAAGUAUUAGUUCUAAAAAAAAAAAGAUAUAUACUAGAAGUAAUUGUUUUAUCAAUUCAUUGUAUAAUAAACAGGAGUGAGACUUCCAACAGAGGAUUGAGCAUCA
B13: chr10:16593140:16593241:-|3pUTR|ENSG00000148484|unk|FALSE|unique (ssRNA)
RNA: GGGAGUUCUACAGUCCGACGAUCUUAUUUUUCUUUUCACUCUCUUUCUAAUGCUUCCCACCUUACCUUUUAGAUUCUUUUGCUAGGUGGGAGAUUGUUAUAAGGUCUUUAAACCAUUUCCAUUUGUUUCUUUAACAUUACCAACAACAGAGGAUUGAGCAUCA
B14: chr17:58089516:58089557:+|3pUTR|ENSG00000264364|msi1_unk|FALSE|overlapping (ssRNA)
RNA: GGGAGUUCUACAGUCCGACGAUCGAAGGCUGCUUUAUGUUUAUUUUUCAAGACUUUAAAAAUAUUUUUUGGUUGUAUUGCACUAGGAAAUCUCUCCCACCUCUCCCUUUUCUCUUUCUUUCCCUAUACAAAAUAAAAGGCCCACAACAGAGGAUUGAGCAUCA

These binders were tested against T1, UNK ZnF1-6 (called full-length) (assay: nsRBNS (natural sequence RNA bind-n-seq); RBNS binding buffer (assumed for nsRBNS): 25 mM Tris pH 7.5, 150 mM KCl, 3 mM MgCl2, 0.01% Triton X-100, 500 ug/ml BSA, 20 U/ml SUPERase-In, 4 C; UNK is unkempt and MSI1 is Musashi-1; names of the RNAs are library labels; protein concentration not given here; high values mean tight binding).
In the case of B1, the binding signal is reported as 2.54 enrichment R.
For B2, the binding signal was 0.522 enrichment R.
B3 showed a binding signal of 0.414 enrichment R.
Binder B4 has a binding signal of 0.663 enrichment R.
With B5 the binding signal was 0.598 enrichment R.
B6 gave a binding signal of 0.426 enrichment R.
In the case of B7, the binding signal is reported as 2.92 enrichment R.
In the case of B8, the binding signal is reported as 0.826 enrichment R.
B9 gave a binding signal of 2.83 enrichment R.
B10 showed a binding signal of 1 enrichment R.
B11 showed a binding signal of 2.27 enrichment R.
Binder B12 has a binding signal of 2.41 enrichment R.
With B13 the binding signal was 4.14 enrichment R.
B14 was tested, and the binding signal was 2.4 enrichment R.
